Reference: PubChem BioAssay AID485294 (National Center for Advancing Translational Sciences (NCATS), 2010)
The whole screen tested about 370,000 compounds, of which about 150 (0.041%) were called active. The shares of active, inactive and inconclusive entries below differ from those in the screen. Calls follow the shape of the dose curve; as a rule, active = well fitted inhibition curve with a large enough effect; inconclusive = small, poorly fitted or top-dose-only effect; inactive = flat fitted curve, though single readings scatter. No potency is given beside an inconclusive call; the fits are too rough.

Each compound was assayed against Beta-lactamase (Escherichia coli (strain K12)) (UniProt P00811) (assay: qHTS Inhibitors of AmpC Beta-Lactamase (assay with detergent)). Conditions: AmpC hydrolysis of nitrocefin, absorbance 480 nm, 0.01% Triton; activity change, negative = inhibition: at 114 µM (top of the series).
Chain of UniProt P00811 (P00811 whole entry, looked up): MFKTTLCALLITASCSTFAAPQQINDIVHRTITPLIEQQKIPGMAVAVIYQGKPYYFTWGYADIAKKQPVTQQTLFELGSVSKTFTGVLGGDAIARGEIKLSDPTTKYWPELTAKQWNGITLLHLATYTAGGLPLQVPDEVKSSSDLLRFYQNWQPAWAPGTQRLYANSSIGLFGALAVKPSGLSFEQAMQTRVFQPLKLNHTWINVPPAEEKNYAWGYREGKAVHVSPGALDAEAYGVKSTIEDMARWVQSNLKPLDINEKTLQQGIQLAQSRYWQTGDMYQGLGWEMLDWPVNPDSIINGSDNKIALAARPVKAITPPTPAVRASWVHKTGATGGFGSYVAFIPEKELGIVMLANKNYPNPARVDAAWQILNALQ
Method in brief: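 20 mM phosphate pH 7.0 + 0.01% (detergent screen) or 0.0001% Triton X-100; 5.3 nM AmpC reagent; cpd preinc 15 min RT; nitrocefin (800 uM stock) to start; A480 q20 s × 4 min; Activity was normalised to no-enzyme and no-compound control wells.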
Also: nearly all actives have a fitted effect of over 25% in size.
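For activity change, negative = inhibition in this document: 0% = no-compound wells and -100% = no-enzyme wells.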
Potency is read from the fitted curve at half-maximal effect; tags tell the direction and shape of the fitted curve.

**Q.** Which Potency does the source give for O=C(NCCN=C1NS(=O)(=O)c2ccccc21)c1ccccc1 here?
**A.** inconclusive [inhibitor, full curve, poor fit]

**Q.** How did the Potency turn out when Cc1ccc(CSCC(=O)Nc2ccccc2F)cc1 was run?
**A.** inconclusive [inhibitor, single point]

**Q.** How did the “activity change, negative = inhibition” value turn out when Cc1ccc2c(c1)nnn2C1CCN(S(=O)(=O)c2ccc3ccccc3c2)CC1 was run?
**A.** inactive: 2.38%

**Q.** For CCC(C)(C)NC(=O)c1ccc2c(c1)N(CC(=O)OC)C(=O)C(C)(C)O2, which “activity change, negative = inhibition” value is on record?
**A.** inactive: -10.1%

**Q.** For Cn1c(=O)[nH]c(=O)c2c1nc(NN)n2CCOc1ccccc1, which Potency is on record?
**A.** inconclusive [inhibitor, partial curve, poor fit]

**Q.** Which Potency does the source give for C=C(C)[C@@H]1C2C(=O)O[C@H]1[C@H]1OC(=O)[C@@]34OC3C[C@]2(O)[C@@]14C (stereo partly specified) here?
**A.** inconclusive [inhibitor, full curve]

**Q.** Which Potency does the source give for CC(=O)Nc1ccccc1C(=O)N1CCN(Cc2ccc3c(c2)OCO3)CC1 here?
**A.** inconclusive [inhibitor, full curve, poor fit]

**Q.** With Cc1ccc(S(=O)(=O)NCC(=O)OCC(=O)N(C)C2CCCCC2)cc1 as the compound, how does the Potency read?
**A.** inconclusive [inhibitor, single point]

**Q.** For O=C(NC(C(=O)c1ccccc1)n1c(=O)cc[nH]c1=S)c1ccccc1 (stereo unspecified), which “activity change, negative = inhibition” value is on record?
**A.** inactive: 2.25%

**Q.** Which “activity change, negative = inhibition” value does the source give for CC(c1ccco1)N(C(=O)c1ccc(Cl)s1)c1ccccn1 (stereo unspecified) here?
**A.** inactive: -0.823%

**Q.** CCOP(=O)(C1=C(O)C(=O)C(C(C)(C)C)=CC1=O)c1ccccc1 (stereo unspecified) was tested. Which “activity change, negative = inhibition” value did it give?
**A.** inactive: -0.406%

**Q.** How did the Potency turn out when Cn1cc(CN2CCCC(C(=O)Nc3cccc(-n4cccn4)c3)C2)cn1 (stereo unspecified) was run?
**A.** inconclusive [inhibitor, full curve, poor fit]

**Q.** How did the “activity change, negative = inhibition” value turn out when CCNc1ccc(S(N)(=O)=O)cc1[N+](=O)[O-] was run?
**A.** inactive: -14.3%

**Q.** Which Potency does the source give for CCOC(=O)CN1C(=O)C(O)(CC(=O)c2ccccn2)c2ccccc21 (stereo unspecified) here?
**A.** inconclusive [inhibitor, single point]

**Q.** With O=C(OCCN1C(=O)c2cccc3c(N4CCOCC4)ccc(c23)C1=O)c1ccccc1Cl as the compound, how does the “activity change, negative = inhibition” value read?
**A.** inactive: -5.44%

**Q.** With Cc1ccc(CNc2nc(N)c([N+](=O)[O-])c(Nc3cccc(F)c3)n2)cc1 as the compound, how does the Potency read?
**A.** inconclusive [inhibitor, full curve, poor fit]

**Q.** How did the “activity change, negative = inhibition” value turn out when O=C(Nc1ccc(-c2csc(-c3ccccc3)n2)cc1)c1ccccc1 was run?
**A.** inactive: 0.238%

**Q.** With Cc1c(C#N)c(N)nc2c3c(sc12)NC(=O)CC3c1ccc(F)cc1 (stereo unspecified) as the compound, how does the “activity change, negative = inhibition” value read?
**A.** inactive: 4.29%

**Q.** How did the “activity change, negative = inhibition” value turn out when CCN1C(=O)c2n[nH]c(C(=O)OC)c2C1=O was run?
**A.** inactive: 3.18%

**Q.** For CC(C)N1CCC(n2nccc2NC(=O)c2ccc3c(c2)OCO3)CC1, which Potency is on record?
**A.** inconclusive [inhibitor, full curve, poor fit]

**Q.** COCCn1c(SCC(=O)Nc2sc(C)c(C)c2C#N)nnc1-c1ccc(OC)cc1 was tested. Which Potency did it give?
**A.** inconclusive [inhibitor, full curve]
